# This is one part of the list.
# Legend:
# Assay in all cases: glycan array binding signal (z-score within array); higher = stronger binding
# Conditions in all cases: glycan notation: IUPAC condensed, linker removed
# [1] = target: GlcNAc(b1-3)Gal(b1-4)GlcNAc(b1-6)[Gal(b1-3)]GalNAc
# In short: (§1)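 Glycan array binding is given as a within-array Z-score, which can be read as non-binding when negative. The arrays, 3228 of them, came from the Consortium for Functional Glycomics database and were retained only where the protein sequence was available. Z-scores were averaged across arrays of the same protein sequence at different concentrations or buffers and across linkers.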
# [2] = target: GlcNAc(b1-3)Gal(b1-4)GlcNAc(b1-6)[GlcNAc(b1-3)Gal(b1-3)]GalNAc
# In short: as §1
# [3] = target: GlcNAc(b1-3)Gal(b1-4)GlcNAc(b1-6)[GlcNAc(b1-3)]Gal(b1-4)GlcNAc
# In short: as §1
# [4] = target: GlcNAc(b1-3)GalNAc
# In short: as §1
# [5] = target: GlcNAc(b1-3)Man
# In short: as §1
# [6] = target: GlcNAc(b1-3)[GlcNAc(b1-4)][GlcNAc(b1-6)]GlcNAc
# In short: as §1
# [7] = target: GlcNAc(b1-3)[GlcNAc(b1-6)]Gal(b1-4)GlcNAc
# In short: as §1
# [8] = target: GlcNAc(b1-3)[GlcNAc(b1-6)]GalNAc
# In short: as §1
# [9] = target: GlcNAc(b1-3)[GlcNAc(b1-6)]GlcNAc
# In short: as §1
# [10] = target: GlcNAc(b1-4)Gal(b1-4)GlcNAc
# In short: as §1
# [11] = target: GlcNAc(b1-4)GlcNAc
# In short: as §1
# [12] = target: GlcNAc(b1-4)GlcNAc(b1-4)GlcNAc
# In short: as §1
# [13] = target: GlcNAc(b1-4)GlcNAc(b1-4)GlcNAc(b1-4)GlcNAc(b1-4)GlcNAc
# In short: as §1
# [14] = target: GlcNAc(b1-4)GlcNAc(b1-4)GlcNAc(b1-4)GlcNAc(b1-4)GlcNAc(b1-4)GlcNAc
# In short: as §1
# [15] = target: GlcNAc(b1-4)[GlcNAc(b1-6)]GalNAc
# In short: as §1
# [16] = target: GlcNAc(b1-6)Gal(b1-4)GlcNAc
# In short: as §1
# [17] = target: GlcNAc(b1-6)GalNAc
# In short: as §1
# [18] = target: GlcNAc6S(b1-3)Gal(b1-4)GlcNAc
# In short: as §1
# [19] = target: Kdn(a2-3)Gal(b1-3)GalNAc
# In short: as §1
# [20] = target: Kdn(a2-3)Gal(b1-3)GlcNAc
# In short: as §1
# [21] = target: Kdn(a2-3)Gal(b1-4)Glc
# In short: as §1
# [22] = target: Kdn(a2-3)Gal(b1-4)GlcNAc
# In short: as §1
# [23] = target: Kdn(a2-3)Gal(b1-4)[Fuc(a1-3)]GlcNAc
# In short: as §1
# [24] = target: Kdn(a2-6)Gal(b1-4)GlcNAc
# In short: as §1
# [25] = target: Man(a1-2)Man(a1-2)Man(a1-3)Man
# In short: as §1
# [26] = target: Man(a1-2)Man(a1-2)Man(a1-3)[Man(a1-2)Man(a1-3)[Man(a1-2)Man(a1-6)]Man(a1-6)]Man(b1-4)GlcNAc(b1-4)GlcNAc
# In short: as §1
# [27] = target: Man(a1-2)Man(a1-2)Man(a1-3)[Man(a1-2)Man(a1-6)[Man(a1-3)]Man(a1-6)]Man(b1-4)GlcNAc(b1-4)GlcNAc
# In short: as §1
# [28] = target: Man(a1-2)Man(a1-2)Man(a1-6)[Man(a1-3)]Man
# In short: as §1
# [29] = target: Man(a1-2)Man(a1-3)Man
# In short: as §1
# [30] = target: Man(a1-2)Man(a1-3)[Man(a1-2)Man(a1-6)]Man
# In short: as §1
# [31] = target: Man(a1-2)Man(a1-3)[Man(a1-2)Man(a1-6)]Man(a1-6)[Man(a1-2)Man(a1-2)Man(a1-3)]Man
# In short: as §1
# [32] = target: Man(a1-2)Man(a1-3)[Man(a1-2)Man(a1-6)]Man(a1-6)[Man(a1-2)Man(a1-2)Man(a1-3)]Man(b1-4)GlcNAc(b1-4)GlcNAc
# In short: as §1
# [33] = target: Man(a1-2)Man(a1-3)[Man(a1-3)[Man(a1-6)]Man(a1-6)]Man(b1-4)GlcNAc(b1-4)GlcNAc
# In short: as §1
# [34] = target: Man(a1-2)Man(a1-3)[Man(a1-6)]Man(a1-6)[Man(a1-2)Man(a1-3)]Man(b1-4)GlcNAc(b1-4)GlcNAc
# In short: as §1
# [35] = target: Man(a1-2)Man(a1-6)[Man(a1-3)]Man(a1-6)[Man(a1-2)Man(a1-2)Man(a1-3)]Man
# In short: as §1
# [36] = target: Man(a1-2)Man(a1-6)[Man(a1-3)]Man(a1-6)[Man(a1-2)Man(a1-2)Man(a1-3)]Man(b1-4)GlcNAc(b1-4)GlcNAc
# In short: as §1
# [37] = target: Man(a1-3)[Man(a1-6)]Man
# In short: as §1
binder,measurement,setting,value
"Epa7 (Candida glabrata), Q6DTM6_CANGB (protein) MGSSHHHHHHSSGLVPRGSHMKDDYSSFLSNNNLGWTDPTEFPLGCSPNVTTPKNGLSMELYSYDLRKNGSYPCWDAAYLDPNYPRTGYKSHRLLAKVDGVTGNINFYYHATKGCTPEIDHLPASYNYPKPLTMTNFTMLLYGYFKPKVTGYHTFTISADDLLFVNFGAGNAFDCCKRESSADDFGNYQAYAVWGSQTAKDDLTVHLDAGLYYPIRIFFNNREYDAELSLTLKTESDSNPVIDFSDYFYSFDDTKDGCPGLVSYDTS",glycan array binding signal (z-score),[1],2.11
same,glycan array binding signal (z-score),[2],-0.195
same,glycan array binding signal (z-score),[3],-0.242
same,glycan array binding signal (z-score),[4],-0.247
same,glycan array binding signal (z-score),[5],-0.232
same,glycan array binding signal (z-score),[6],-0.261
same,glycan array binding signal (z-score),[7],-0.26
same,glycan array binding signal (z-score),[8],-0.231
same,glycan array binding signal (z-score),[9],-0.28
same,glycan array binding signal (z-score),[10],-0.261
same,glycan array binding signal (z-score),[11],-0.23
same,glycan array binding signal (z-score),[12],-0.258
same,glycan array binding signal (z-score),[13],-0.252
same,glycan array binding signal (z-score),[14],-0.254
same,glycan array binding signal (z-score),[15],-0.258
same,glycan array binding signal (z-score),[16],-0.139
same,glycan array binding signal (z-score),[17],-0.248
same,glycan array binding signal (z-score),[18],0.109
same,glycan array binding signal (z-score),[19],-0.192
same,glycan array binding signal (z-score),[20],-0.238
same,glycan array binding signal (z-score),[21],-0.136
same,glycan array binding signal (z-score),[22],-0.226
same,glycan array binding signal (z-score),[23],-0.076
same,glycan array binding signal (z-score),[24],-0.228
same,glycan array binding signal (z-score),[25],-0.244
same,glycan array binding signal (z-score),[26],-0.135
same,glycan array binding signal (z-score),[27],-0.285
same,glycan array binding signal (z-score),[28],-0.094
same,glycan array binding signal (z-score),[29],-0.258
same,glycan array binding signal (z-score),[30],-0.261
same,glycan array binding signal (z-score),[31],-0.239
same,glycan array binding signal (z-score),[32],-0.231
same,glycan array binding signal (z-score),[33],-0.277
same,glycan array binding signal (z-score),[34],-0.259
same,glycan array binding signal (z-score),[35],-0.237
same,glycan array binding signal (z-score),[36],-0.235
same,glycan array binding signal (z-score),[37],-0.244
